Test [1] addresses ALIX (endogenous, HEK293 cells) (human (endogenous in HEK293)) (UniProt Q8WUM4). In words: co-IP; 3A9 anti-ALIX immunoprecipitation from pooled membrane (M) fractions of flotation centrifugation, 0.1% Triton X-100; HEK293 cells expressing FLAG-ALG-2 and treated with A23187 (Figure 4c) or serum-starved or EGF-stimulated (Figure 4d).
For test [2] the target is unchanged. In words: co-IP; 3A9 anti-ALIX immunoprecipitation from pooled soluble (S) fractions of flotation centrifugation, 0.1% Triton X-100; HEK293 cells expressing FLAG-ALG-2 and treated with A23187 (Figure 4c) or serum-starved or EGF-stimulated (Figure 4d).
The target of test [3] is T1, ALIX (endogenous, HEK293 cells) (human (endogenous in HEK293)), Q8WUM4.
T1 chain: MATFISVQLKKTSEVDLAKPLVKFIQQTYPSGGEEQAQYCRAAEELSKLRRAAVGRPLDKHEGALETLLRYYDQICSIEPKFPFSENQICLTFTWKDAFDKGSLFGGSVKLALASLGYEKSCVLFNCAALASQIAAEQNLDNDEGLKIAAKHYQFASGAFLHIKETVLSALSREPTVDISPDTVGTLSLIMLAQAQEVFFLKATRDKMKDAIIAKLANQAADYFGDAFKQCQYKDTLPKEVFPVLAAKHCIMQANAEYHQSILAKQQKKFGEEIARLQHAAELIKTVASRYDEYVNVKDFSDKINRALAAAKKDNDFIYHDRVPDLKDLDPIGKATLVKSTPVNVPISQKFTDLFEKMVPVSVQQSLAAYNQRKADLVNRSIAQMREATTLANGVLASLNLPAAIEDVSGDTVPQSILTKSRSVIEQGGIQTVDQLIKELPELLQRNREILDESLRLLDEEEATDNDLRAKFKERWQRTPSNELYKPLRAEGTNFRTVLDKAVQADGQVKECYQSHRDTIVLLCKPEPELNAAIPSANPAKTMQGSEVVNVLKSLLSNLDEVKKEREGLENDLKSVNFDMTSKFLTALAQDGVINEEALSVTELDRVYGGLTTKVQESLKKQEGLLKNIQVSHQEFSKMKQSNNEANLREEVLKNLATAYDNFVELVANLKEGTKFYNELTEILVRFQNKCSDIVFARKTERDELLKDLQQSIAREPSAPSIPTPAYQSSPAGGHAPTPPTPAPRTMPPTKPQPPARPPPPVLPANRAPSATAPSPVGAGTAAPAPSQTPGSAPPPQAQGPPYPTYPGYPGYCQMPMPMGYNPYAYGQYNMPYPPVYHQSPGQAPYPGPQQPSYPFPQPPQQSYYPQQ
In words: co-IP; 1A3 anti-ALIX immunoprecipitation from HEK293 cytosol mixed with purified GST-p6 or GST-p9, incubated with GST-ALG-2 plus CaCl2 for 30 min, then 30 min with or without EGTA; only the binder purified. Conditions: remark: other sources report otherwise.

Results are given in words; binding and its absence hold for the method and conditions named. Binding seen in cells or lysates may run through a third protein. Some results given as binding are weak or reduced against the parent protein; the word gives no strength. For some of these results: Where a sequence is shown, tags or fusion partners need not be part of it.

B1: CHMP4B (endogenous, HEK293 cells) (protein, UniProt Q9H444 1-224)
chain: MSVFGKLFGAGGGKAGKGGPTPQEAIQRLRDTEEMLSKKQEFLEKKIEQELTAAKKHGTKNKRAALQALKRKKRYEKQLAQIDGTLSTIEFQREALENANTNTEVLKNMGYAAKAMKAAHDNMDIDKVDELMQDIADQQELAEEISTAISKPVGFGEEFDEDELMAELEELEQEELDKNLLEISGPETVPLPNVPSIALPSKPAKKKEEEDDDMKELENWAGSM
On to B1, for which the binding result in test [1] is recorded as “binds”; in test [2], “no binding (condition: in the soluble (S) fraction)”.

B2: GST-tagged EIAV GAG protein p9, P69732 436-486 (protein)
chain: PIQQKSQHNKSVVQETPQTQNLYPDLSEIKKEYNVKEKDQVEDLNLDSLWE
Turning to B2, in test [3], the binding result is on record as “binds”.

B3: GST-tagged HIV GAG protein p6, P04591 449-500 (protein)
chain: LQSRPEPTAPPEESFRSGVETTTPPQKQEPIDKELYPLTSLRSLFGNDPSSQ
With B3, the binding result in test [3] is listed as “binds”.

The values above are taken from article PMC4860835.
